In PubChem BioAssay AID1963576 (National Center for Advancing Translational Sciences (NCATS), 2024):
In all, about 46,000 compounds went through this assay and about 60 (0.1%) were called active. Not shown: some 3% with an inconclusive outcome. Calls follow the shape of the dose curve; as a rule, active = well fitted inhibition curve with a large enough effect; inconclusive = small, poorly fitted or top-dose-only effect; inactive = no such curve, though single readings can be large or run the other way. The list shows a part of the results.

Assay: Primary qHTS assay for Inhibitors of ovarian cancer metastasis using an organotypic tumor microenvironment (TME) model. Also: nearly all actives have a fitted effect of over 65% in size.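 As to activity change, negative = inhibition: plate controls were DMSO wells for no effect and tomatine positive control wells for full effect.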
Settings: SKOV3ip1-GFP adhesion/invasion on 3D omental model, fluorescence; series mostly up to 45.8 µM; activity change, negative = inhibition: at the top concentration
In short: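 qHTS, 4-pt dose (0.36-46 umol/L); SKOV3ip1-GFP, 1,200 cells/well, no FBS; primary omental fibroblast/mesothelial co-culture 48 h pre-grown; 2 h RT + 16 h 37 C; PBS wash, 4% PFA; GFP count 488/509 nm.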

Activity change, negative = inhibition, inactive:
CCOC(=O)c1c(NC(=O)CCCOc2ccc(C(C)(C)C)cc2)sc2c1CCC2 -0.627%
COc1ccc(N2CCN(C(=O)Cc3c(C(=O)O)c(C)cn3C)CC2)cc1 -14.2%
O=C(Cn1c(-c2cccs2)cc2cc(Cl)ccc21)NCc1ccccc1 5.79%
CCCSc1nc(=O)c2c(n1C)NC(=O)CC2c1cccc(F)c1F (stereo not given) 0.684%
CCC(=O)N1CCc2cc(Br)cc(S(=O)(=O)NCCc3ccccc3Cl)c21 4.62%
CC(C)Oc1ccc(C(=O)N[C@H](CNC(=O)CN(C)C)Cc2ccc(-c3cn4cccc([C@H](C)O)c4n3)cc2)cc1Cl -12.8%
COc1ccc(C)cc1NS(=O)(=O)c1ccc2c(c1)[C@H]1C=CC[C@H]1[C@@H](c1cccc(Cl)c1)N2 -10.8%
Cc1cc(C)cc(NC(=O)CSCn2nnc3c(=O)[nH]c(Cc4ccc(F)cc4)nc32)c1 -1.14%
COc1ccccc1CCNC(=O)CCn1c(=O)c2cccn2c2ccc(F)cc21 -3.86%
CCOc1cc(C(=O)Nc2ccc3oc(-c4ccc(CC)cc4)nc3c2)cc(OCC)c1OCC -12.5%
O=C(Nc1cc(C(F)(F)F)ccc1Cl)c1cc(S(=O)(=O)NCc2ccccc2)ccc1F -20.9%
CCOC(=O)c1cccc(NC(=O)Cn2c(=O)nc(-c3ccccc3)c3ccccc32)c1 6.81%
CCc1cc2c(cc3c(=O)n(CCCC(=O)NCc4ccccc4Cl)nc(CC)n32)s1 -5.94%
Cc1cccc(OCc2ccc(-c3nc(C#N)c(N4CCC(C(N)=O)CC4)o3)o2)c1 -15.2%
Cc1ccc(OCC(=O)Nc2ccc3nc(SCc4ccccc4)sc3c2)cc1 1.27%
Cc1noc(/C=C/c2ccco2)c1S(=O)(=O)N1CCC(C(=O)Nc2ccc(F)cc2F)CC1 -3.02%
COc1ccc(NC(=O)C(Cc2ccccc2)NS(=O)(=O)c2ccc(Br)s2)cc1OC (stereo not given) -8.32%
Cc1ccc(-c2nc3ncccc3o2)cc1NC(=O)COc1ccc(C(C)C)cc1 6.83%
CCOC(=O)c1cccc(NC(=O)CC2C(=O)N(c3ccc(F)cc3)C(=O)N2C(C)C)c1 (stereo not given) 0.0477%
CCn1cc(C(=O)N2CCN(c3ccccc3)CC2)c(=O)c2cc(S(=O)(=O)N(C)C3CCCCC3)ccc21 11.9%
CC(=O)CSc1nc(-c2ccccc2)[nH]c1S(=O)(=O)c1ccc(C)cc1 16.9%
COC(=O)c1ccc(Cn2c(=O)cc(C)c3c(C)nn(C)c32)cc1 -7.75%
CCc1ccc(CNC(=O)c2nn(-c3ccc(C)c(C)c3)nc2CO)cc1 -3.43%
Cc1ccc2c(CNCc3cccs3)c(C(=O)O)n(Cc3ccc(F)cc3)c2c1 -5.97%
Cc1ccc2c(=O)cc(C(=O)Nc3sc4c(c3C(=O)NCc3ccco3)CCCC4)oc2c1C 4.52%
Cn1ncc2c(NCc3cccc(Cl)c3)ncnc21 0.939%
CCN(CC)S(=O)(=O)c1ccc2c(c1)N(CC(=O)NCc1ccccc1)C(=O)CS2 2.35%
CCOc1ccc(NC(=O)Nc2c(C)n(C)n(-c3ccccc3)c2=O)cc1 -6.77%
O=C(CN1C(=O)CCSc2ccc(S(=O)(=O)N3CCCC3)cc21)Nc1cccc(Cl)c1 -8.36%
Cc1cnc(NC(=O)C2=C(O)c3ccccc3S(=O)(=O)N2C)s1 -9.07%
NC(=O)CSc1ncc2c(n1)-c1ccccc1N(Cc1ccccc1)S2(=O)=O 2.63%
Cc1ccc(-c2noc(CCC(=O)Nc3ccc(F)cc3Cl)n2)cc1 1.21%
Cc1nn(C)c2c1c(-c1ccccc1)cc(=O)n2Cc1ccccc1F 7.57%
CCCS(=O)(=O)N1CCC(N2CCN(Cc3ccc(C)cc3)C(=O)C2=O)CC1 0.939%
Cc1c(Cl)cccc1NC(=O)N1CCN(Cc2cc(=O)n3nc(-c4ccccc4F)sc3n2)CC1 3.53%
Cc1cc(C)c2c(=O)cc(C(=O)NCCc3ccc(S(N)(=O)=O)cc3)oc2c1 5.5%
COc1ccc(NS(=O)(=O)c2ccc3c(c2)CCN3C(=O)C2CC2)cc1OC -2.67%
COc1cccc2cc(-c3nnc(Nc4ccccc4C)s3)c(=O)oc12 5.47%
COc1ccccc1N1CCN(C(=O)CCn2cnc3onc(-c4ccc(F)cc4)c3c2=O)CC1 1.91%
COC(=O)c1sccc1S(=O)(=O)N(CC(=O)Nc1ccc(C)cc1)c1ccccc1 -8.78%
Cc1noc2ncnc(Nc3ccc(F)cc3)c12 11.9%
Cc1cccc(NC(=O)C(c2ccccc2)N2Cc3ccccc3C2=O)c1C (stereo not given) 1.63%
Cc1cccc(NC(=O)CSc2nnc(-c3cccs3)o2)c1 1.73%
Cc1ccc(CCNC(=O)NCc2noc3ccc(C)cc23)cc1 -27.7%
CCOc1ccc(-c2cc3nc(C4CCN(C(=O)OC(C)(C)C)CC4)c(C(=O)Nc4ccc(C(=O)OC)cc4)cn3n2)cc1 -2.6%
Cn1ncc(C(=O)N2CCN(c3ccccc3)CC2)c1C1CCN(C(=O)OC(C)(C)C)CC1 -9.46%
COc1ccc(NC(=O)Cn2c(=O)nc(-c3ccccc3)c3ccccc32)cc1OC -7.52%
Cc1cc(C)cc(N2C(=O)CS(=O)(=O)C23C(=O)N(Cc2ccc(F)cc2)c2ccc(C)cc23)c1 (stereo not given) 16.4%
Cc1cc(F)ccc1NC(=O)C1CCCN(c2nnc(-n3c(C)ccc3C)s2)C1 (stereo not given) 1.64%
CSc1ccc(CCNC(=O)C(C)n2nc(C)c3c(C)n(-c4ccccc4)nc3c2=O)cc1 (stereo not given) -22.1%
CN(C)c1ccc(-c2nc(-c3ccccn3)no2)cc1[N+](=O)[O-] -2.98%
Cc1ccc(NC(=O)COc2ccc3oc4c(c3c2)CCCC4)c(C)c1 25.1%
Cc1ccc(CCNC(=O)Cn2nc(C)c3c(C)n(-c4ccc(C)cc4)nc3c2=O)cc1 -1.34%
Cc1cccc(CNC(=O)c2ccc(-c3nc(CS(=O)(=O)c4ccccc4)c(C)o3)cc2)c1 1.54%
CC(C)COc1ccc(C(=O)NCC2OCCc3ccccc32)cc1 (stereo not given) 7.21%
CCOC(=O)c1c(C)n(-c2ccccc2)c2ccc(OC(=O)c3ccccc3Cl)cc12 1.24%
Cc1ccc(Nc2cc(C(=O)NC3CCCC3)c3ccccc3n2)cc1C -11.5%
Nc1ncc(S(=O)(=O)NCc2ccccc2F)cn1 0.543%
COc1ccccc1N1CCN(C(=O)C2CCN(S(=O)(=O)c3cccc4nonc34)CC2)CC1 -2.3%
NC(=O)c1c(NC(=O)c2noc3c2CCCC3)sc2c1CCCC2 -3%
CCOc1ccc(CCNC(=O)C2CCCN(c3nnc(C)c4c(C)n(-c5ccccc5)nc34)C2)cc1 (stereo not given) -27.4%
CCn1c2ccccc2c2cc(NC(=O)COc3cc(C)c(Cl)c(C)c3)ccc21 0.238%
CCOc1ccc(-c2csc3ncnc(Nc4cccc(O)c4)c23)cc1 5.55%
Cc1ccccc1C(=O)Nc1ccc(NC(=O)c2cccs2)cc1 18.8%
COC(=O)c1cc(NC(=O)CCS(=O)(=O)c2cc(Br)cc3c2N(C(=O)C2CC2)CC3)cc(C(=O)OC)c1 1.67%
CCOc1cc2[nH]c(=O)n(CCC(=O)N3CCN(c4cccc(Cl)c4)CC3)c(=O)c2cc1OCC -3.78%
COc1ccc2oc(=O)c(C(=O)NCCc3c(C)[nH]c4c(C)cccc34)cc2c1 1.02%
CC(=O)N1CCCc2cc(S(=O)(=O)N3CCC(C(=O)NCc4ccc(F)cc4)CC3)ccc21 3.77%
CCOC(=O)c1c(C)oc2nc(C)nc(N3CCN(c4ccc(C)cc4C)CC3)c12 -4.06%
Cc1nc(-c2ccc(F)cc2)sc1CCNC(=O)c1ccccc1 1.77%
CCCN(C(=O)C1CCN(S(=O)(=O)c2c(C)noc2/C=C/c2ccc(C)cc2)CC1)c1ccccc1F -0.134%
COc1cc(OC)c(NC(=O)COc2ccccc2-c2nnc(-c3ccccc3)o2)cc1Cl -0.361%
COC(=O)c1cc(C)nc2c1c(=O)nc(SCc1cc(C)ccc1C)n2C1CC1 8.8%
CCCN(Cc1cc2cc(C)ccc2[nH]c1=O)C(=O)c1cccc(Cl)c1 -6.97%
CCOCCCNC(=O)c1c(NC(=O)Cc2coc3c(C)c(C)ccc23)sc2c1CCC2 -17.4%

outcome, inactive:
Cc1ccc(-c2c(C(=O)N3CCN(c4cccc(C)c4C)CC3)oc(=O)c3ccccc23)cc1
CCc1cc(C(=O)Nc2cnn(Cc3ccc(F)cc3)c2)no1
Cc1cccc(NC(=O)Cn2cc(S(=O)(=O)c3ccc(F)cc3)c(=O)c3cc4c(cc32)OCO4)c1
COc1ccc(OC)c(CCNC(=O)c2cc3c(-c4ccccc4F)nn(C)c3s2)c1
COc1ccc(CCNC(=O)CCc2c(C)nc3cc(-c4ccccc4)nn3c2C)cc1OC
CCCCN(Cc1ccccc1)C(=O)CN(C)S(=O)(=O)c1ccc2c(c1)c(=O)n(C)c(=O)n2C
COCCCNC(=O)CC(c1cc(OC)c(OC)c(OC)c1)N1Cc2ccccc2C1=O (stereo not given)
CCOc1ccc(Sc2cc(C(=O)NCc3ccc(F)cc3)c3ccccc3n2)cc1
Cc1cc(=O)[nH]c2nnc(SCC(=O)Nc3cc(C(F)(F)F)ccc3Cl)n12
CCC(C)NC(=O)Cn1ncc2c(C)n(Cc3ccc(F)cc3)c(C)c2c1=O (stereo not given)
COc1cc(Cl)c(C)cc1NC(=O)CSc1cc(=O)n(C)c2cc(Cl)ccc12
COc1ccc(NC(=O)c2cccc(N3CCCS3(=O)=O)c2)cc1
Cc1ccccc1CNC(=O)C(=O)NCC(c1ccco1)S(=O)(=O)c1ccc(F)cc1 (stereo not given)
COc1cccc(CNC(=O)Cn2c(=O)c3cccn3c3ccc(F)cc32)c1OC
Cc1cc(C)n2nc(CNC(=O)c3cccc(Cl)c3)nc2n1
CCOC(=O)Cn1nc(C)c(NC(=O)COc2ccc(OC)cc2)c1C
COc1ccc(C(=O)NCC(c2ccco2)S(=O)(=O)c2ccccc2)cc1 (stereo not given)
CCN1CCOC(=O)C1CC(=O)Nc1ccccc1C(F)(F)F (stereo not given)
Cc1cccc(NC(=O)C2CCC(CNS(=O)(=O)c3ccc4c(c3)CCCC(=O)N4)CC2)c1C (stereo not given)
Cc1cc(C)cc(N(C)S(=O)(=O)c2nnc(NC(=O)COc3ccc(C)c(C)c3)s2)c1
